{
  "source": "PubChem BioAssay AID463173",
  "about": "(ICCB-Longwood Screening Facility, Harvard Medical School, 2010)",
  "note": "The whole screen tested about 52,000 compounds, of which about 1,700 (3.3%) were called active. No stated cut-off is given here; in the data, active means survival mostly below about 52% (no sharp cut-off); inactive means mostly above about 56%. The list shows a part of the results.",
  "data": [
    {"test_system": "Wild type", "assay": "growth inhibition of S. aureus wild type versus tarO mutant, primary screen, teichoic acid synthesis inhibitors, RN4220, OD600 (AID 463173)", "conditions": "S. aureus RN4220 wild type/DeltatarO growth, OD600, 18 h, active compounds read low, screened at 18.75 µg/mL (by protocol)", "values": [
      {"molecule": "O=C(CSC1=Nc2ccccc2C2=NC(CCC(=O)NC3CCCCC3)C(=O)N12)Nc1cccc(C(F)(F)F)c1", "note": "(centres undefined)", "survival": "inactive: 70%"},
      {"molecule": "Cc1cc(Cl)ccc1NC(=O)c1cccc(NC(=O)N2CCSc3ncccc32)c1", "survival": "inactive: 76%"},
      {"molecule": "COc1cc(OC)c(NC(=O)N2CCSc3ccccc32)cc1Cl", "survival": "inactive: 91%"},
      {"molecule": "COc1ccc(CNC(=O)c2cnc3sc(N4CCOCC4)nn3c2=O)cc1", "survival": "inactive: 152%"},
      {"molecule": "CC(C)(C)OC(=O)N1CCN(c2ccc(NC(=O)c3cc4ccccc4oc3=O)cc2)CC1", "survival": "inactive: 104%"},
      {"molecule": "Fc1ccc(-n2ncc3c(NC4CCCCCC4)ncnc32)cc1", "survival": "inactive: 76%"},
      {"molecule": "C/C(=N/OCC(=O)Nc1sc2c(c1C#N)CCCC2)c1cccs1", "survival": "inactive: 111%"},
      {"molecule": "CCOC(=O)c1c(NC(=O)CCCOc2ccccc2C)sc2c1CCC(C)C2", "note": "(centres undefined)", "survival": "active: 6%"},
      {"molecule": "CCOc1ccc(NC(=O)CCc2c(C)nc3nc(C)nn3c2C)cc1", "survival": "inactive: 85%"},
      {"molecule": "CCOC(=O)c1c(C)oc2nc(C)nc(NCCCN3CCN(c4ccccc4)CC3)c12", "survival": "inactive: 76%"},
      {"molecule": "CC(O)c1nc2cc3ccccc3cc2[nH]1", "note": "(centres undefined)", "survival": "inactive: 125%"},
      {"molecule": "COC(=O)C(CCSC)NC(=O)C1CCN(c2ncnc3c2nc2n3CCCCC2)CC1", "note": "(centres undefined)", "survival": "inactive: 69%"},
      {"molecule": "CCOc1ccc(C(=O)N2CCC(c3nnc(-c4ccccc4OC)o3)CC2)cc1", "survival": "inactive: 123%"},
      {"molecule": "N#Cc1ccccc1CN1C(=O)c2ccccc2Sc2ccc(C(=O)OCc3ccco3)cc21", "survival": "inactive: 85%"},
      {"molecule": "O=C(CCc1ccccc1)NCc1nc2cccnc2n1Cc1ccc(F)cc1", "survival": "active: -6%"},
      {"molecule": "CCNC(=O)CC1C(=O)N(c2ccc(F)cc2)C(=O)N1CCOC", "note": "(centres undefined)", "survival": "inactive: 80%"},
      {"molecule": "COc1ccccc1CNC(=O)c1ccc(Cn2c(SCc3ccccc3)nc3cccnc32)cc1", "survival": "active: 10%"},
      {"molecule": "CCOC(=O)N1CCc2c(sc3c2c(=O)n(-c2ccccc2)c(=O)n3CC(=O)Nc2ccc(OC)cc2OC)C1", "survival": "inactive: 74%"},
      {"molecule": "Cn1c(N)c(C#N)c2c(c1=S)CCCC2", "survival": "inactive: 98%"},
      {"molecule": "COc1ccc(NC(=O)CN2CCN(Cc3ccccc3)S2(=O)=O)c(OC)c1", "survival": "inactive: 128%"},
      {"molecule": "CCOc1ccc(OCC)c(NC(=O)c2cc(S(=O)(=O)N3CCCC3)cn2C)c1", "survival": "inactive: 87%"},
      {"molecule": "CCC(Sc1nc2ncccc2[nH]1)C(=O)Nc1ccccc1F", "note": "(centres undefined)", "survival": "inactive: 121%"},
      {"molecule": "O=C(O)CNC(=O)OCc1ccccc1", "survival": "inactive: 98%"},
      {"molecule": "COc1ccc2c(CNCc3cccs3)c(C(=O)O)n(Cc3ccccc3C)c2c1", "survival": "inactive: 97%"},
      {"molecule": "COc1cc(OC)c(N(C)C(=O)c2cc3c(s2)-c2ccccc2OC3)cc1Cl", "survival": "inactive: 73%"},
      {"molecule": "O=C(OCC1CCCO1)c1ccc2c(c1)N(Cc1ccc(F)cc1)C(=O)c1ccccc1S2(=O)=O", "note": "(centres undefined)", "survival": "inactive: 70%"},
      {"molecule": "Cc1ccc(Cl)cc1NC(=O)N1CCC(CN2CCc3ccccc3C2)CC1", "survival": "inactive: 82%"},
      {"molecule": "CCC(=O)NCc1nc2ccccc2n1Cc1ccccc1", "survival": "inactive: 106%"},
      {"molecule": "CSC1=C(C#N)C(c2ccc(Cl)cc2)CC(=O)N1", "note": "(centres undefined)", "survival": "inactive: 106%"},
      {"molecule": "Cc1ccc(S(=O)(=O)N2CCCc3cc(NC(=O)c4cccc(Cl)c4)ccc32)cc1", "survival": "inactive: 72%"},
      {"molecule": "CCOc1cc(CNc2ccc(O)cc2)cc(Cl)c1OCc1ccccc1", "survival": "active: -5%"},
      {"molecule": "CCCCOc1ccc(C(=O)Nc2ccc3c(c2)N(C(C)=O)CCC3)cc1", "survival": "inactive: 94%"},
      {"molecule": "Cn1cccc1-c1cc2n(n1)CCC(=O)N2CC(=O)Nc1ccc(F)cc1Cl", "survival": "inactive: 63%"},
      {"molecule": "COCCCNc1nc2c(-c3cccc(Br)c3)nnn2c2ccccc12", "survival": "inactive: 92%"},
      {"molecule": "Cc1c(NC(=O)Cc2ccccc2)cccc1-c1nc2cccnc2s1", "survival": "inactive: 84%"},
      {"molecule": "CCOc1ccc(NC(=O)c2cc3nc(-c4ccc(OC)cc4)cc(C(F)(F)F)n3n2)cc1", "survival": "inactive: 144%"},
      {"molecule": "Cn1nc(-c2ccccc2F)c2cc(C(=O)N3CCN(c4ccccc4F)CC3)sc21", "survival": "inactive: 25%"},
      {"molecule": "COC(=O)c1ccc2c(=O)n(CCCCCC(=O)N3CCN(c4cccc(C)c4C)CC3)c(=O)[nH]c2c1", "survival": "inactive: 97%"},
      {"molecule": "CN1CCN(C(=O)/C(=C/c2cccs2)NC(=O)c2cccs2)CC1", "survival": "inactive: 106%"},
      {"molecule": "CC1(C)CC(=O)C=C(NCC2CCNCC2)C1", "survival": "inactive: 99%"},
      {"molecule": "CCS(=O)(=O)N1CCc2cc(C(=O)NCc3ccc(C)cc3)ccc21", "survival": "inactive: 88%"},
      {"molecule": "O=C(CSc1nc2c([nH]c3ccccc32)c(=O)n1-c1ccc(F)cc1)Nc1ccc2c(c1)OCCO2", "survival": "inactive: 82%"},
      {"molecule": "N#CCN(CC#N)C(=O)c1cc(-c2ccccc2)nc2ccccc12", "survival": "inactive: 121%"},
      {"molecule": "Cc1ccc(S(=O)(=O)N(CC(O)Cn2c3ccccc3c3ccccc32)c2cccc(C(=O)NCCO)c2)cc1", "note": "(centres undefined)", "survival": "inactive: 60%"},
      {"molecule": "CCC(Cn1nnc2ccccc2c1=O)NC(=O)Nc1ccccc1Cl", "note": "(centres undefined)", "survival": "inactive: 89%"},
      {"molecule": "CCOC(=O)c1nnn(-c2nonc2N)c1-c1ccccc1", "survival": "inactive: 119%"},
      {"molecule": "Cc1cccc(-c2cc(-c3ccccc3)nc(SCC(=O)Nc3ccccc3)c2C#N)c1", "survival": "inactive: 94%"},
      {"molecule": "Cc1c(C(=O)NCc2ccc(Cl)cc2)sc2nc3n(c(=O)c12)CCC3", "survival": "inactive: 101%"},
      {"molecule": "Cc1ccc(NC(=O)CC(c2ccc(F)cc2)N2Cc3ccccc3C2=O)cc1C", "note": "(centres undefined)", "survival": "inactive: 88%"},
      {"molecule": "COCCNC(=O)CN1C(=O)CCn2nc(-c3cn(C)c4ccccc34)cc21", "survival": "inactive: 64%"},
      {"molecule": "CCOC(=O)N1CCN(CCC(=O)Nc2cccc(F)c2)CC1", "survival": "inactive: 74%"},
      {"molecule": "Cc1c(C(=O)O)oc2c1-c1nn(Cc3ccccc3Cl)cc1CC2", "survival": "inactive: 68%"},
      {"molecule": "COc1cc([C@@H]2Nc3c(F)cccc3[C@@H]3C=CC[C@@H]32)cc(Br)c1OC", "survival": "inactive: 69%"},
      {"molecule": "CCc1ccccc1NC(=O)c1ccc(F)c(S(=O)(=O)N2CCN(c3ccccc3OC)CC2)c1", "survival": "inactive: 67%"},
      {"molecule": "COc1ccc2c(Sc3ccc(C)cc3)c(C(=O)NC(C)c3ccccc3)[nH]c2c1", "note": "(centres undefined)", "survival": "inactive: 89%"},
      {"molecule": "CCc1ccc(C(=O)c2cn(CC(=O)NCc3ccc(C)cc3)c3nc(C)ccc3c2=O)cc1", "survival": "inactive: 120%"},
      {"molecule": "Cc1ccc(C(=O)N(CC#N)CC#N)cc1", "survival": "inactive: 101%"},
      {"molecule": "Fc1ccccc1CSC1=NCCN1", "survival": "inactive: 105%"},
      {"molecule": "Cc1ccc(Sc2ccc(N3CCC(C(=O)Nc4ccc(Cl)cc4)CC3)nn2)cc1", "survival": "inactive: 76%"}
    ]}
  ]
}
